Data from the antibiotic and cytotoxicity screens of Wong et al. (2023).
The list shows a part of the results.

Tests used:
HSkMC = human skeletal muscle cells; test: cytotoxicity call (relative viability < 0.9); conditions: 10 µM
HepG2 = test: cytotoxicity call (relative viability < 0.9); conditions: 10 µM
S. aureus RN4220 = test: growth inhibition call (relative growth <= 0.2); conditions: 50 µM

SMILES	cytotoxicity call (HSkMC)	cytotoxicity call (HepG2)	growth inhibition call (S. aureus RN4220)
Cc1ccc(S(=O)(=O)Nc2ccc3c(c2)CC(=O)N([C@@H](C)CO)C[C@H](C)[C@H](CN(C)Cc2ccncc2)O3)cc1	inactive	inactive	inactive
COc1ccc(S(=O)(=O)Nc2ccc3c(c2)C(=O)N([C@@H](C)CO)C[C@H](C)[C@H](CN(C)C(=O)NC2CCCCC2)OCCCC[C@H](C)O3)cc1	inactive	inactive	inactive
C[C@@H]1CN([C@H](C)CO)S(=O)(=O)c2ccc(-c3cccc(C#N)c3)cc2O[C@@H]1CN(C)C(=O)c1cccnc1	inactive	inactive	inactive
O=C1CC[NH][Zn][O]C(=O)[C@H](Cc2cnc[nH]2)N1	inactive	inactive	inactive
C[C@H]1CN([C@@H](C)CO)C(=O)c2cc(NC(=O)Cc3ccccc3)ccc2O[C@H]1CN(C)Cc1ccc(-c2ccccc2)cc1	inactive	inactive	inactive
C[C@H]1CN([C@@H](C)CO)C(=O)Cc2cc(NC(=O)Cc3cn(C)c4ccccc34)ccc2O[C@H]1CN(C)Cc1ccc(Cl)c(Cl)c1	active	inactive	inactive
CN(C)CCCNC(=O)C[C@@H]1CC[C@H]2[C@H](COc3ccc(NC(=O)c4ccccc4F)cc3C(=O)N2C)O1	inactive	inactive	inactive
COc1ccc([Si](C)(C)[C@@H]2[C@@H](CC(=O)N3Cc4ccccc4C[C@H]3CO)O[C@]3(C(=O)N(Cc4ccc(N5CCOC5=O)cc4)c4ccccc43)[C@H]2C)cc1	inactive	inactive	inactive
C[C@H](CO)N1C[C@H](C)[C@@H](CN(C)C(=O)Nc2ccc(F)cc2)OCc2ccccc2-c2ccccc2C1=O	inactive	inactive	inactive
C[C@@H]1CCCCO[C@@H](CN(C)C(=O)Nc2ccc3c(c2)OCO3)[C@@H](C)CN([C@H](C)CO)C(=O)c2cc(NC(=O)c3ccccc3)ccc2O1	inactive	inactive	inactive
CC(=O)OCC1=C[C@@H]2OC(=O)C3=CO[C@@H](O[C@H]4O[C@H](CO)[C@@H](O)[C@H](O)[C@H]4O)[C@H]1[C@@H]32	inactive	inactive	inactive
O=C(C[C@@H]1C[C@H]2c3cc(NC(=O)Cc4ccncc4)ccc3O[C@H]2[C@H](CO)O1)NCc1cc(F)ccc1F	inactive	inactive	inactive
C[C@H]1CN([C@@H](C)CO)C(=O)Cc2cc(NC(=O)Cc3cn(C)c4ccccc34)ccc2O[C@@H]1CN(C)S(=O)(=O)c1cn(C)cn1	inactive	inactive	inactive
CC(C)[C@@H](CO)N1C(=O)[C@@H]2[C@H]3C(=O)O[C@H](C)CC/C=C\[C@H]3O[C@]23C=CCN(Cn2nnc4ccccc42)C(=O)[C@@H]13	inactive	inactive	inactive
C[C@@H]1CCCCO[C@H](CN(C)S(=O)(=O)c2cccs2)[C@H](C)CN([C@@H](C)CO)C(=O)c2cc(NC(=O)C3CCCCC3)ccc2O1	inactive	inactive	inactive
COc1ccc(NC(=O)Nc2ccc3c(c2)C(=O)N([C@@H](C)CO)C[C@H](C)[C@@H](CN(C)S(=O)(=O)c2cccs2)OCCCC[C@H](C)O3)cc1	inactive	inactive	inactive
C[C@H]1CCCCO[C@H](CN(C)S(C)(=O)=O)[C@@H](C)CN([C@@H](C)CO)C(=O)c2cc(NS(C)(=O)=O)ccc2O1	inactive	inactive	inactive
C[C@H](CO)N1C[C@H](C)[C@@H](CN(C)S(=O)(=O)c2ccccc2)OCCCC[C@H](C)Oc2ccc(NC(=O)NC3CCCCC3)cc2C1=O	inactive	inactive	inactive
Cc1cc(N)n(-c2nc(=O)cc(C)[nH]2)n1	inactive	inactive	inactive
C[C@H](CO)N1C[C@H](C)[C@H](CN(C)C(=O)N[C@H](C)c2ccccc2)OCc2ccccc2-c2ccccc2C1=O	inactive	inactive	inactive
O=C(COc1ccccc1)N1CCNC1=O	inactive	inactive	inactive
C[C@@H]1CCCCO[C@@H](CN(C)C(=O)Nc2ccccc2)[C@@H](C)CN([C@@H](C)CO)C(=O)c2cc(NC(=O)Nc3cccc4ccccc34)ccc2O1	inactive	inactive	inactive
Cc1cccc(-n2cc(CN)cn2)c1	inactive	inactive	inactive
CC(C)Cc1ccc(/C=C/C=O)cc1	inactive	inactive	inactive
CO[C@@H]1[C@@H](O[C@@H]2O[C@H](C)[C@@H](O[C@H]3C[C@@](C)(O)[C@@H](OC(=O)CC(C)C)[C@H](C)O3)[C@H](N(C)C)[C@H]2O)[C@@H](CC=O)C[C@@H](C)[C@@H](O)/C=C\C=C/C[C@@H](C)OC(=O)C[C@H]1OC(C)=O	inactive	inactive	active
